Measured values as given in article PMC12041881, “Tailored phenyl ureas eradicate drug-resistant Mycobacterium tuberculosis by targeting mycolic acid cell wall assembly” (Chemical Science, 2025).

System: Mtb H37Ra proteome
Type: cell-based

O=C(Nc1ccc(Cl)c(C(F)(F)F)c1)NC1COC2(CCC2)OC1 [Compound 21]
EphF abundance in full proteome: slightly upregulated
IniA and IniC abundance in full proteome: concentration-dependently upregulated
MmpL3 abundance in full proteome: slightly upregulated

O=C(Nc1ccc(Cl)c(C(F)(F)F)c1)NC1CCCCC1 [Compound 227]
EphF abundance in full proteome: slightly upregulated
IniA and IniC abundance in full proteome: concentration-dependently upregulated
MmpL3 abundance in full proteome: slightly upregulated

CC(C)=CCC/C(C)=C/CNCCNC1C2CC3CC(C2)CC1C3 (stereo not drawn) [SQ109, reference compound]
EphF abundance in full proteome: not
IniA and IniC abundance in full proteome: not induced
MmpL3 abundance in full proteome: does not
